Experimental data: PubChem BioAssay AID2202238 (Ras Initiative Chemistry Research Team, Frederick National …, 2025)
This is one part of the list. These are further read-outs of the screen, such as a control signal, another cell line or another target. No call is given for them.

Target: GTPase KRas (Homo sapiens) (UniProt P01116)
Assay: Cysteine mutants labelled by reactive fragments (mass read-out) (AID 2202238)
Set-up: protein at 5 µM with 500 µM competing thiol for 1.5 h
Settings: KRAS G12D cysteine mutants, disulfide tethering, MALDI-TOF labeling, stronger effect = higher value, fragment at 500 µM
[1] = measured here: G60C mutant labeling
[2] = measured here: G75C mutant labeling
[3] = measured here: H94C mutant labeling
[4] = measured here: I36C mutant labeling
[5] = measured here: L120C mutant labeling
[6] = measured here: M67C mutant labeling
[7] = measured here: M72C mutant labeling
[8] = measured here: N26C mutant labeling
[9] = measured here: N86C mutant labeling
[10] = measured here: P121C mutant labeling
[11] = measured here: S122C mutant labeling
[12] = measured here: S136C mutant labeling

Sequence of UniProt P01116 (P01116 whole entry, looked up, the tested form may be a part): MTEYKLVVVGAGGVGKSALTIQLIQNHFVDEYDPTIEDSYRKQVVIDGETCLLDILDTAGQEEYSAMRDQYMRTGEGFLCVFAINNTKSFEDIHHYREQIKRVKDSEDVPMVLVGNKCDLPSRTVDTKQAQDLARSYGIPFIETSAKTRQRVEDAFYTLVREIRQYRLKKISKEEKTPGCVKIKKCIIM

SMILES | percent labeling [1] [%] | percent labeling [2] [%] | percent labeling [3] [%] | percent labeling [4] [%] | percent labeling [5] [%] | percent labeling [6] [%] | percent labeling [7] [%] | percent labeling [8] [%] | percent labeling [9] [%] | percent labeling [10] [%] | percent labeling [11] [%] | percent labeling [12] [%]
Cn1cc(C(=O)NCCS)c(-c2coc3ccccc23)n1 | 32.4 | 18.5 | 22 | 13.7 | 26.9 | 24 | 49.6 | 31.8 | 12.1 | 17.1 | 12.6 | 24.2
O=C(CCS)Nc1ccc2nc[nH]c(=O)c2c1 | – | 13.8 | 24.8 | 42.8 | 22.9 | 23.9 | 30.1 | – | 42.8 | 25.6 | 24.7 | 52.9
O=C(NCCS)C1(c2cccc(Br)c2)CCOCC1 | 43.6 | 23 | 25.5 | 14.6 | 28.6 | 25 | 31.6 | 28.5 | 15.3 | 18.9 | 13.6 | 40.3
CC(C(=O)NCCS)N1CCC(Cc2ccccc2)CC1 (stereo unspecified) | 41.2 | 25.9 | 32.1 | 30.1 | 25.2 | 56.3 | 27.9 | 37.9 | 15.9 | 24.1 | 17.2 | 32.8
O=C(CCS)Nc1cccc(Cn2nc3ccccn3c2=O)c1 | – | 11.5 | 27.9 | 35.6 | 19 | 27.2 | 26.7 | – | 16 | 19.9 | 17.1 | 36.6
O=C(CCS)N1CCN(C(=O)Cc2cccc(F)c2)CC1 | – | 12.4 | 31.7 | 37.8 | 31.6 | 42.1 | 19.7 | – | 19 | 36.8 | 36.9 | 63
Cc1cc(CN(C(=O)CCS)C2CC2)cc(S(N)(=O)=O)c1C | – | 20.6 | 43.5 | 31.2 | 29 | 55.5 | 36.8 | – | 25 | 26.7 | 24.2 | 54.8
CC(C)c1noc(C2(NC(=O)CCS)CCOCC2)n1 | – | 8.4 | 36.8 | 39 | 31.8 | 36 | 18.9 | – | 29.7 | 34.5 | 35.3 | 54.5
CC(C)c1nn(C)c2sc(C(=O)NCCS)cc12 | 28.6 | 14.8 | 21.9 | 16.1 | 22.4 | 18.2 | 38.4 | 36.6 | 15.1 | 15.7 | 15.3 | 32.4
O=C(NCCS)c1csc(-c2cc(Br)cs2)n1 | 18.4 | 17.3 | 9 | 4.5 | 9.5 | 5.3 | 41.2 | 17.7 | 8 | 7.9 | 3.4 | 7.3
CCc1ncncc1C(=O)NCCS | 36.4 | 25 | 37.3 | 30.4 | 31.2 | 31.8 | 24.6 | 38.7 | 28.8 | 36.3 | 34.5 | 45.7
O=C(NCCS)C1COCCN1CC(F)(F)F (stereo unspecified) | 23.6 | 10.8 | 30.8 | 20.1 | 36.2 | 31.5 | 19.5 | 34.5 | 33.5 | 32.5 | 38 | 39.2
O=C(CCS)NCc1ccn(CC(F)F)n1 | – | 8.9 | 24.3 | 36.1 | 26.9 | 27.7 | 12.6 | – | 19.2 | 25.2 | 35.4 | 45.6
O=C(NCCS)c1ccn(CCC(F)(F)F)n1 | 29.9 | 17.7 | 36.2 | 23.4 | 51 | 26.3 | 32.1 | 39.5 | 29 | 30.4 | 34.2 | 40.5
Cc1nn(Cn2ccc(C(=O)NCCS)n2)c(C)c1Br | 33.8 | 25.8 | 18.5 | 17.1 | 28.9 | 26.7 | 38.4 | 33.4 | 15.1 | 17.3 | 19.6 | 25.7
CNC(=O)c1cc(Oc2cccc(NC(=O)CCS)c2)ccn1 | – | 11.1 | 22.2 | 23.2 | 17.1 | 18.7 | 40.1 | – | 12.5 | 17.5 | 10.9 | 26.7
COc1ccc([C@@H]2C[C@H]2CC(=O)NCCS)cc1 | 39.2 | 11.1 | 17.4 | 12.2 | 23.3 | 17.3 | 22.7 | 27.7 | 6.5 | 16.7 | 9.8 | 21
CC(C)(C)c1csc(CC2(O)CC3CCC(C2)N3C(=O)CCS)n1 (stereo unspecified) | – | 20.2 | 35 | 30.4 | 26.7 | 42.6 | 31.5 | – | 25.9 | 27.2 | 27.1 | 62.4
CC(O)C(NC(=O)c1cc(Cl)ccc1Cl)C(=O)NCCS (stereo unspecified) | 39.9 | 4.6 | 29.6 | 21.9 | 44 | 29.5 | 19.6 | 32.2 | 20.9 | 23.7 | 29.7 | 37
O=C(NCCS)c1cc(Oc2ccccc2)ccn1 | 23.4 | 16 | 16.1 | 7.7 | 24.3 | 13.5 | 49 | 24.6 | 11.8 | 15.4 | 9.6 | 21
Nc1nc(C2CC2)nc(N2CCN(C(=O)CCS)CC2)n1 | – | 23.8 | 38.7 | 46.5 | 34.6 | 50.3 | 34.3 | – | 40.5 | 31.9 | 29.3 | 75.6
N#CCCN(CC1CCN(Cc2ccccc2)CC1)C(=O)CCS | – | 14.5 | 33.1 | 52.6 | 25.1 | 67.4 | 26.3 | – | 33.1 | 28.1 | 29.5 | 57.2
COc1ccc2c(c1)CCCC2C(=O)NCCS (stereo unspecified) | 49.4 | 16.5 | 32.2 | 18.6 | 33.9 | 25.3 | 24.2 | 37 | 20.7 | 21.3 | 21.9 | 39.5
O=C(CCS)N1CCC(O)(Cn2ccnn2)CC1 | – | 6.8 | 25.2 | 35.2 | 31.6 | 36.4 | 13.3 | – | 23.9 | 33.3 | 31.1 | 44.4
O=C(CCNC(=O)c1cnccn1)NCCS | 20.9 | 13.2 | 24.9 | 23.3 | 29.4 | 24.4 | 10.2 | 27 | 20.3 | 29.8 | 27.3 | 37
O=C(CCCN1C(=O)CCc2ccccc21)NCCS | 52.6 | 24.5 | 39.2 | 30 | 49.6 | 46.7 | 54.6 | 44.3 | 28.8 | 39.4 | 36.8 | 62
COc1ccc(C)cc1-n1cc(C(=O)NCCS)ccc1=O | 23.5 | 11.9 | 24.6 | 25.9 | 27.5 | 22.3 | 41.9 | 37.1 | 14.1 | 20.5 | 16.8 | 57
O=C1CC(C(=O)NCCS)(c2ccccc2)CN1 (stereo unspecified) | 33.3 | 13.6 | 31.7 | 25.8 | 39.6 | 29.4 | 25 | 37.4 | 20.9 | 33.5 | 31.6 | 58.1
Cn1cc(CCC(=O)NCCS)c2ccccc21 | 40.6 | 15.6 | 25.7 | 19.1 | 21.6 | 34.3 | 35.6 | 30.3 | 5.4 | 21.5 | 20.6 | 38.4
